From PubChem BioAssay
Inconclusive results, whose numbers are uncertain, are shown with a selection of clear calls. Potencies beside an inconclusive call are fits to weak or partial responses and may not hold up. The source made the active and inactive calls. Cut-off not given; nearly all actives show IC50 up to about 30 µM.

experiment: SU-DIPG-XXV glioma cell viability, MIPE5.0 library, qHTS (AID 1347068);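 on IC50: cells exposed to compound for 48 hours before viability readout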

| Compound | outcome | IC50 |
| --- | --- | --- |
| COC1=C[C@@H]2[C@@H]3Cc4ccc(OC)c(O)c4[C@]2(CCN3C)CC1=O | inactive | – |
| COc1ccc2c(c[n+](C)c3c4cc5c(cc4ccc23)OCO5)c1OC | – | inconclusive: 8.33 µM [cytotoxic] |
| O=c1[nH]c2ccccc2n1C1CCN(Cc2ccc(-c3[nH]c4cc5ncnc5cc4nc3-c3ccccc3)cc2)CC1 | – | inconclusive: 18.6 µM [cytotoxic] |
| CC(C)(O)C(=O)Nc1ccc([N+](=O)[O-])c(C(F)(F)F)c1 | inactive | – |
| CCNC(=O)CC1N=C(c2ccc(Cl)cc2)c2cc(OC)ccc2-n2c(C)nnc21 (configuration not stated) | inactive | – |
| COC[C@H]1OC(=O)c2coc3c2[C@@]1(C)C1=C(C3=O)C2CCC(=O)[C@@]2(C)C[C@H]1OC(C)=O (some centres not stated) | – | inconclusive: 37.2 µM [cytotoxic] |
| CCOC(=O)Nc1ccc(NCc2ccc(F)cc2)cc1N | inactive | – |
| Cc1c(C(=O)Nc2cccc(C(F)(F)F)c2)cc(-c2ccccc2)n1CCCN1CCOCC1 | – | inconclusive: 29.5 µM [cytotoxic] |
| Cc1cccc(C)c1NC(=O)CN1CCCC1=O | inactive | – |
| Cc1sc2c(c1C)C(c1ccc(Cl)cc1)=N[C@@H](CC(=O)OC(C)(C)C)c1nnc(C)n1-2 | – | inconclusive: 13.2 µM [cytotoxic] |
| CCN(CC)C(=O)c1ccc(C2=CC3(CCNCC3)Oc3cccc(O)c32)cc1 | – | inconclusive: 0.0166 µM |
| CN(C)CCN(C)CCc1ccc(Cl)c(Cl)c1 | inactive | – |
| C=C[C@H]1CN2CCC1C[C@@H]2[C@@H](O)c1ccnc2ccccc12 (some centres not stated) | inactive | – |
| COc1ccc(C(=O)c2c(C)n(CCN3CCOCC3)c3cc(I)ccc23)cc1 | – | inconclusive: 18.6 µM [cytotoxic] |
| COC[C@H]1OC(=O)c2coc3c2[C@@]1(C)C1=C(C3=O)[C@@H]2CC[C@H](O)[C@@]2(C)C[C@H]1OC(C)=O | inactive | – |
| COC1(CS(=O)c2ccccc2)CCN(CCc2c[nH]c3ccc(F)cc23)CC1 (configuration not stated) | inactive | – |
| CO/C1=C/C(C)=C\[C@@H](C)[C@@H](O)[C@@H](C)C/C(C)=C\C=C/[C@H](OC)[C@@H]([C@@H](C)[C@@H](O)[C@H](C)[C@@]2(O)C[C@@H](O)[C@H](C)[C@@H](C(C)C)O2)OC1=O | – | active: 0.0494 µM |
| CCCCCC[C@H]1C(=O)O[C@H](C)[C@H](NC(=O)c2cccc(NC=O)c2O)C(=O)O[C@@H](C)[C@@H]1OC(=O)CC(C)C | – | inconclusive: 0.372 µM [cytotoxic] |
| CC(C)CC(N(C)C)C1(c2ccc(Cl)cc2)CCC1 (configuration not stated) | inactive | – |
| CO[C@H]1CCC(O[C@H]2C[C@H]([C@]3(C)CC[C@]4(C[C@H](O)[C@@H](C)[C@@H]([C@@H](C)/C=C(\C)C(=O)[C@H](C)C[C@H](C)C(=O)O)O4)O3)O[C@]3(O[C@@H]([C@H]4O[C@@](O)(CO)[C@H](C)C[C@@H]4C)C[C@@H]3C)[C@@H]2C)O[C@@H]1C (some centres not stated) | – | active: 0.934 µM |
| C[C@@]12OC(=O)[C@]1([C@@H](O)[C@@H]1C=CCCC1)NC(=O)[C@@H]2CCCl | – | inconclusive: 0.148 µM [cytotoxic] |
| C[C@@H]1O[C@@H](O[C@H]2C[C@@H](O)[C@]3(CO)[C@H]4[C@H](O)C[C@]5(C)[C@@H](C6=CC(=O)OC6)CC[C@]5(O)[C@@H]4CC[C@]3(O)C2)[C@H](O)[C@H](O)[C@H]1O | – | inconclusive: 0.0468 µM [cytotoxic] |
